The record followed here is the BET-seq Pho4 binding data (Le et al. 2018).

The other results are listed elsewhere or left out. The energies were worked out here from pooled read counts, against the library average; single values are noisy.

For this assay, the target named is T1, Pho4 (S. cerevisiae) (UniProt P07270).
T1 sequence: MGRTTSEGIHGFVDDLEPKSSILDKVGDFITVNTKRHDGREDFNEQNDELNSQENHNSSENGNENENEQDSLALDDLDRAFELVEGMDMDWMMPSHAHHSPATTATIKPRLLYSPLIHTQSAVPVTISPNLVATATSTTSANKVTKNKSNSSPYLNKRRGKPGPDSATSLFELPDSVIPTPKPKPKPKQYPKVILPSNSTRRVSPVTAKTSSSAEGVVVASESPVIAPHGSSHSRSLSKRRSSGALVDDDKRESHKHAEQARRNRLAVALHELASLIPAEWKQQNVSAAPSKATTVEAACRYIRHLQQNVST
Nature of the assay: relative binding free energy (BET-seq); higher = weaker binding. To be noted: reference: library average.
Regarding TTTTACACGTGGTCGC, the “relative binding free energy” value was 0.08 kcal/mol.
With TTGTACACGTGGGACA the figure was -0.03 kcal/mol.
Then CGGTTCACGTGATTAT, with 0.24 kcal/mol; and GTTACCACGTGAGTTA, with 0.25 kcal/mol; and GAAAGCACGTGTTATT, with 0.21 kcal/mol.
Turning to TCTTGCACGTGTTTAA, the “relative binding free energy” value worked out at 0.08 kcal/mol.
With ATTTGCACGTGAGTTC the figure was 0.25 kcal/mol.
With TCTTGCACGTGCGGGA the figure was 0.08 kcal/mol; with AGGATCACGTGGAATT, 0.36 kcal/mol.
Regarding ATCAGCACGTGTAGGG, the “relative binding free energy” value is -0.18 kcal/mol.
With AGAAGCACGTGGGCGA the figure was -0.12 kcal/mol; with ACTATCACGTGTTATT, 0.13 kcal/mol; with AGATTCACGTGCTGGT, 0.11 kcal/mol.
On to TGCGTCACGTGTGGCG, for which the “relative binding free energy” value was 0.17 kcal/mol.
With GTTTGCACGTGGTGGT the figure was 0.03 kcal/mol; with TTTGTCACGTGGAGTA, 0.08 kcal/mol; with TGAATCACGTGATGGC, 0.18 kcal/mol.
As for TTAGGCACGTGTTCCT, the “relative binding free energy” value was determined as 0.02 kcal/mol.
With GGGGCCACGTGTTTTA the figure was 0.03 kcal/mol; with ATAAGCACGTGCGTTG, -0.28 kcal/mol; with GTTTACACGTGCTGTT, 0.15 kcal/mol.
With TGTTTCACGTGAACGT the figure was 0.33 kcal/mol.
Then AATTTCACGTGATTAT, with 0.26 kcal/mol.
As to TGATTCACGTGGCGGG, the “relative binding free energy” value worked out at 0.26 kcal/mol.
In the case of AGAGTCACGTGTGAAG, the “relative binding free energy” value was 0.15 kcal/mol.
In the case of ATATTCACGTGGAAGT, the “relative binding free energy” value turned out to be 0.31 kcal/mol.
Then TTCAGCACGTGGGGTA, with -0.19 kcal/mol; and ATCTGCACGTGGGAAG, with 0.05 kcal/mol; and GATATCACGTGGTGGA, with 0.07 kcal/mol.
With TGTGACACGTGGTTTT, the “relative binding free energy” value was 0.17 kcal/mol.
With GGATTCACGTGAGGCG the figure was 0.35 kcal/mol.
Then ATGAACACGTGTGGCT, with 0.03 kcal/mol; and CGTAGCACGTGTGGCA, with -0.06 kcal/mol.
Then CACGGCACGTGTGTGT, with -0.18 kcal/mol; and AAGAACACGTGTAGTG, with 0.02 kcal/mol; and GATTGCACGTGTTTGC, with -0.06 kcal/mol.
Take TTTGACACGTGTGAGG: the “relative binding free energy” value amounted to 0.06 kcal/mol.
In the case of AATTGCACGTGTGTAC, the “relative binding free energy” value was determined as 0.04 kcal/mol.
With TTGTTCACGTGCATCG the figure was 0.22 kcal/mol; with ATGTTCACGTGTCTTT, 0.27 kcal/mol; with ATTTGCACGTGGGGTA, -0.15 kcal/mol.
Then ACGGGCACGTGGGTGG, with -0.26 kcal/mol; and GTATTCACGTGGTGAG, with 0.29 kcal/mol; and CTAGTCACGTGGGGCT, with 0.09 kcal/mol.
Regarding CTTTGCACGTGTGCGT, the “relative binding free energy” value was 0 kcal/mol.
Regarding TTAAGCACGTGTTTGT, the “relative binding free energy” value is -0.17 kcal/mol.
Then TAATTCACGTGCGGGA, with 0.2 kcal/mol; and CGGGTCACGTGGGCCT, with 0.09 kcal/mol.
In the case of CGTAGCACGTGAGCGG, the “relative binding free energy” value was found to be 0.07 kcal/mol.
Then TAGGGCACGTGGTAAC, with -0.13 kcal/mol; and GGGCGCACGTGGCGTA, with -0.04 kcal/mol.
With GGGAGCACGTGAATTT the figure was 0.29 kcal/mol; with AGAGGCACGTGTTGGT, -0.08 kcal/mol.
Take GGCGTCACGTGGTTGA: the “relative binding free energy” value stood at 0.18 kcal/mol.
Then TTAATCACGTGCGGTA, with 0.06 kcal/mol; and AGAATCACGTGCTGTG, with 0.08 kcal/mol; and GTGAGCACGTGCCGTT, with -0.01 kcal/mol.
With AGGTCCACGTGTGGGC the figure was 0.13 kcal/mol; with TGGGGCACGTGCGGTA, -0.12 kcal/mol; with GCGTTCACGTGTTATA, 0.22 kcal/mol.
With AATGGCACGTGGTAAA the figure was 0.06 kcal/mol.
With GTTCGCACGTGCGTGG, the “relative binding free energy” value was determined as 0.03 kcal/mol.
Then TTGGGCACGTGAAGTT, with 0.05 kcal/mol; and GTCGGCACGTGGGATT, with -0.09 kcal/mol.
With TTTCACACGTGTGATG the figure was 0.26 kcal/mol; with GCATGCACGTGTTGAT, 0.01 kcal/mol.
With GGTAACACGTGTTGCA the figure was 0.05 kcal/mol; with GGTAACACGTGTCAGG, 0.15 kcal/mol.
Turning to ATGTACACGTGGAATA, the “relative binding free energy” value worked out at 0.14 kcal/mol.
GTGAACACGTGGGGTT: the “relative binding free energy” value came to 0.01 kcal/mol.
Then CCTGGCACGTGTGATG, with 0.07 kcal/mol; and TTCTTCACGTGATCTT, with 0.28 kcal/mol; and AATTTCACGTGCGTGT, with 0.16 kcal/mol.
With CGCTACACGTGTGGGT the figure was 0.09 kcal/mol; with ATTGTCACGTGAACAG, 0.34 kcal/mol.
As to TGAAACACGTGTGTAT, the “relative binding free energy” value stood at 0.2 kcal/mol.
With TAATTCACGTGTGCGA the figure was 0.26 kcal/mol; with GCGTGCACGTGGAGCG, 0.02 kcal/mol; with GTGAGCACGTGGTGAG, -0.15 kcal/mol.
With AGGGGCACGTGGTCGT, the “relative binding free energy” value is -0.4 kcal/mol.
Regarding AGCGCCACGTGGGAGG, the “relative binding free energy” value was -0.2 kcal/mol.
Then ACGTCCACGTGTGTGT, with 0.05 kcal/mol.
As for GTTGGCACGTGCGCGT, the “relative binding free energy” value is -0.27 kcal/mol.
On to AGTATCACGTGCGATG, for which the “relative binding free energy” value is 0.14 kcal/mol.
With CCGGGCACGTGTGTGG the figure was -0.04 kcal/mol.
With TTTGTCACGTGCAGCT the figure was -0.1 kcal/mol; with CGGTTCACGTGGCGGA, 0.21 kcal/mol; with ACTTGCACGTGTTTGA, -0.01 kcal/mol.
GTGCGCACGTGTGGCG: the “relative binding free energy” value amounted to 0.02 kcal/mol.
With GGATTCACGTGTGATG the figure was 0.47 kcal/mol.
With TGTGTCACGTGCTGGC, the “relative binding free energy” value is -0.04 kcal/mol.
On to CTGGGCACGTGCCGGG, for which the “relative binding free energy” value was -0.38 kcal/mol.
With GAATACACGTGTTGAT the figure was 0.18 kcal/mol.
Turning to GCGTGCACGTGGGGAA, the “relative binding free energy” value was -0.16 kcal/mol.
With TGTGACACGTGTTTGG the figure was 0.1 kcal/mol; with GTTAGCACGTGTGGTT, 0.08 kcal/mol; with AGTGTCACGTGAAATG, 0.26 kcal/mol.
Turning to GGAAACACGTGGTGGG, the “relative binding free energy” value is -0.01 kcal/mol.
With TTCGTCACGTGGCTTA the figure was 0.06 kcal/mol.
As to ATATTCACGTGACTGG, the “relative binding free energy” value came out at 0.34 kcal/mol.
Take GAGCACACGTGGGGAG: the “relative binding free energy” value is -0.05 kcal/mol.
As for CTATTCACGTGGATGG, the “relative binding free energy” value came out at 0.28 kcal/mol.
For ATGATCACGTGAGAGG, the “relative binding free energy” value came out at 0.24 kcal/mol.
Then TGTATCACGTGACGTG, with 0.14 kcal/mol; and AATTGCACGTGTGAAT, with 0.18 kcal/mol.
Then GGAAACACGTGTTATG, with 0.06 kcal/mol; and TCTATCACGTGCGGTT, with 0.17 kcal/mol.
As to GGGATCACGTGAAGGA, the “relative binding free energy” value came out at 0.21 kcal/mol.
Then AAGAACACGTGTGGGG, with 0.06 kcal/mol; and TCGGGCACGTGCTTGT, with -0.2 kcal/mol; and TATGTCACGTGATACT, with 0.23 kcal/mol.
Take CTGGCCACGTGGTATG: the “relative binding free energy” value was -0.1 kcal/mol.
For the sequence TGTCGCACGTGGTGTT, the “relative binding free energy” value is -0.25 kcal/mol.
With GGATGCACGTGAATCG the figure was 0.4 kcal/mol.
Then GTTAGCACGTGGTGAA, with -0.06 kcal/mol.
